# Hit rate of the full screen: of about 420,000 compounds, about 64,000 (15%) were called active. The shares of active, inactive and inconclusive entries below differ from those in the screen. Calls come from the whole dose curve; as a rule, active = well fitted inhibition curve with a large enough effect; inconclusive = small, poorly fitted or top-dose-only effect; inactive = flat fitted curve, though single readings scatter. Potencies of inconclusive entries are left out as doubtful fits.
# Assay: qHTS for Inhibitors of human tyrosyl-DNA phosphodiesterase 1 (TDP1): qHTS in cells in absence of CPT; note: nearly all actives have a fitted effect of over 55% in size
# Conditions: DT40 Tdp1-/- hTDP1 cells, no CPT, ATP luminescence, 48 h; activity change, negative = growth inhibition: at 46.2 µM (top of the series) unless noted
# Method in brief: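 A cellular qHTS used chicken DT40 cells lacking endogenous Tdp1 but carrying stably transfected human TDP1. Compounds were applied without camptothecin, and cell growth kinetics were judged by ATP-dependent luminescence after ≥48 hr.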
# % is set by controls: 0 for no effect and ±100 for the full control effect; potency is the fitted concentration of half-maximal effect; tags give direction and shape of the fitted curve.
SMILES,Potency,"activity change, negative = growth inhibition"
C=Cc1ccc(CN2CCCN(Cc3ccc(Cl)cc3)S2(=O)=O)cc1,"inconclusive [inhibitor, single point]",–
Cc1[nH]nc(Nc2ccc(C(C)C)cc2)c1[N+](=O)[O-],"inconclusive [inhibitor, partial curve]",–
COC(=O)Cn1nc(-c2ccc(C)cc2)c2ccccc2c1=O,"inconclusive [inhibitor, single point]",–
CCn1c(=O)c(C(=O)Nc2ncccc2C)c(O)c2ccccc21,active: 2.59 µM,–
Cc1ccc(C)c(NS(=O)(=O)c2cc3c(cc2Cl)NC(=O)CO3)c1,"inconclusive [inhibitor, partial curve, poor fit]",–
Cn1cccc1C(=O)C(=O)Nc1ccccc1,"inconclusive [inhibitor, single point]",–
CC(Nc1nc(-c2cccc(Br)c2)cs1)c1nc2cc(Cl)c(N3CCCCC3)cc2n1CCOCCO (centres undefined),"inconclusive [inhibitor, single point]",–
O=C(COc1ccc(F)c(Cl)c1)N1CCCCCCC1,"inconclusive [inhibitor, single point]",–
CCCc1c(NC(=O)Nc2ccc(Cl)cc2Cl)cnn1-c1ccccc1,inactive,–
COc1ccc(CN2CCN(C(=O)c3ccc(S(=O)(=O)NCc4ccco4)cc3)CC2)cc1,active: 18.4 µM,–
CCOC(=O)c1ccc(NC(=O)CC2C(=O)N(c3ccc(F)cc3)C(=O)N2Cc2ccc3c(c2)OCO3)cc1 (centres undefined),"inconclusive [inhibitor, single point]",–
C/C(=N\NC(N)=S)C1(C)CCCCC1,active: 13 µM,–
COc1cccc(CN(C)C(=O)c2cnn(-c3ncc4c(n3)-c3ccccc3CCC4)c2C)c1,active: 23.1 µM,–
CCc1ccc(CNC(=O)C(=O)NCCc2ccc(OC)c(OC)c2)cc1,inactive,–
Cc1nc(-c2ccccc2)cn2c1nc1ccccc12,"inconclusive [inhibitor, single point]",–
COc1cccc(C2=NOC(C(=O)Nc3ccc4c(c3)OCO4)C2)c1OC (centres undefined),"inconclusive [inhibitor, single point]",–
COc1ccc(S(=O)(=O)NCc2ccncc2)cc1NC(=O)c1ccc(Cl)cc1,active: 14.6 µM,–
O=c1c2ccccc2sn1-c1ccccc1,active: 2.91 µM,–
O=S(=O)(c1ccc(Cl)cc1)N1CCN=C1SCc1cccc(Cl)c1,"inconclusive [inhibitor, single point]",–
Oc1cccc(/C=N/n2c(C3CCCCC3)n[nH]c2=S)c1,inactive,–
Cn1c2ccccc2c2nnc(SCC(=O)NC3CCCC3)nc21,"inconclusive [inhibitor, partial curve]",–
O=C(O)c1nn(CC(=O)N2CCC(Cc3ccccc3)CC2)c(=O)c2ccccc12,"inconclusive [inhibitor, single point]",–
O=C(c1cc(-c2ccccc2Cl)nc2ccc(Br)cc12)N1CCN(c2ccccn2)CC1,"inconclusive [inhibitor, single point]",–
CCOC(=O)c1cnc2ccc(C(=O)OC)cc2c1Nc1ccc(C(=O)O)cc1,inactive,–
Cc1onc(-c2ccccc2Cl)c1C(=O)N1CCCCC1C (centres undefined),inactive,–

SMILES,Potency,"activity change, negative = growth inhibition"
Cc1ccc(S(=O)(=O)NCC2NCCc3ccccc32)cc1 (centres undefined),active: 23.1 µM,–
COc1ccc(CN2C(=O)c3ccccc3C2c2nnnn2-c2c(C)cccc2C)cc1OC (centres undefined),"inconclusive [inhibitor, single point]",–
O=C(c1cccnc1)N1CCC2CC1c1c(Cl)cccc12 (centres undefined),inactive,–
Cc1cc(C)c[n+](-c2nc3ccccc3nc2[N-]S(=O)(=O)c2ccc(Br)s2)c1,"inconclusive [inhibitor, partial curve, poor fit]",–
CCOc1ccccc1NC(=O)c1cc2ccccc2o1,–,inconclusive: -33% [inhibitor]
COc1cc2ccccc2cc1C(=O)Nc1ccc2oc(-c3cccc(Cl)c3Cl)nc2c1,inactive,–
Cn1c(N)c(C(=O)COC(=O)c2ccccc2C(=O)c2ccc(Cl)cc2)c(=O)n(C)c1=O,active: 14.6 µM,–
COc1ccc(OCC(=O)N(C)Cc2ccccc2)cc1,inactive,–
COc1ccc(-n2cc(-c3ccccc3)nc2SCC(=O)Nc2ccccc2)cc1Cl,"inconclusive [inhibitor, single point]",–
COC(=O)c1cc(CC(=O)c2ccc(O)cc2O)c(C)o1,inactive,–
CCN(CC)CCCNC(=O)c1cc(-c2ccc3c(c2)OCO3)on1,inactive,–
O=C(c1ccco1)N1CCN(C(=O)c2cn(-c3ccccc3)nc2-c2ccc(F)cc2)CC1,"inconclusive [inhibitor, single point]",–
Cc1ccc(N2C(=O)C(Cl)=C(NCCO)C2=O)c(C)c1,"inconclusive [inhibitor, single point]",–
COC(=O)CCCC1=CC2=C(c3ccccc3)C(=O)C(C)(OC(=O)C3CCCC3)C(=O)C2=CN1C1CCCC1 (centres undefined),active: 16.4 µM,–
Cc1ccccc1C(=O)NCC(c1ccco1)N1CCc2ccccc2C1 (centres undefined),"inconclusive [inhibitor, single point]",–
CCCn1c(NCc2ccccc2C)nc2ccccc21,"inconclusive [inhibitor, single point]",–
CC1CCCN(c2ccc(C(=O)OCn3nnc4ccccc4c3=O)cc2[N+](=O)[O-])C1 (centres undefined),"inconclusive [inhibitor, single point]",–
COc1c(C)cc(C(=O)C2CCCN(C(=O)c3cc(C4CC4)[nH]n3)C2)cc1C (centres undefined),"inconclusive [inhibitor, single point]",–
O=C(CCCn1c(=O)c2sccc2n(CC(=O)OCc2ccccc2)c1=O)NCc1ccco1,–,inconclusive: -30.7% [inhibitor]
Cc1ccc(S(=O)(=O)N2CCC(=O)N(CCOCc3ccccc3)CC2)cc1,"inconclusive [inhibitor, partial curve]",–
Cc1ccc(C)c(C(=O)CN2C(=O)NC3(CCc4ccccc43)C2=O)c1 (centres undefined),"inconclusive [inhibitor, single point]",–
CCCc1c(C(=O)N/N=C/c2ccc(-c3ccccc3)cc2)nnn1-c1nonc1N,inactive,–
O=C(N/N=C/c1ccc(OC(=O)c2cccs2)cc1)c1cccc(F)c1,active: 20.6 µM,–
CC(C)CNc1ncnc2c1sc1nc(N3CCOCC3)c3c(c12)CC(C)(C)OC3,active: 10.3 µM,–
O=S(=O)(Nc1ccon1)c1cc(Cl)ccc1Cl,–,inconclusive: -33.7% [inhibitor]

SMILES,Potency,"activity change, negative = growth inhibition"
O=C(CCN1CCCCC1)c1ccc2c(c1)OCO2,active: 10.3 µM,–
CCC(C)(C)C1CCC2(CC1)NC(=O)N(CC(=O)Nc1nc(-c3ccc(C)cc3)cs1)C2=O (centres undefined),active: 7.31 µM,–
O=C(O)c1ccc(CNCc2cccc(OCc3ccc(F)cc3)c2)cc1,inactive,–
CCC(C)NCC(=O)Nc1cc(S(=O)(=O)N(CC)c2ccccc2)ccc1Cl (centres undefined),active: 23.1 µM,–
CCOc1ccc(NC(=O)NCCCSC2CCCCC2)cc1,"inconclusive [inhibitor, single point]",–
CCC(=O)Nc1ccc(/C(C)=N\NS(=O)(=O)c2ccc(C)cc2)cc1,inactive,–
CN(C)N=C1c2cc(S(=O)(=O)N(C)C)ccc2-c2ccc(S(=O)(=O)N(C)C)cc21,active: 2.91 µM,–
COc1cccc(C(=O)N2CCC[C@H]2C(=O)N2CCC[C@H]2C(=O)NCc2ccccn2)c1,inactive,–
Cc1cccc(C)c1NC(=O)C1(C)CSCC(=O)N1CCC(C)C (centres undefined),inactive,–
O=C(c1ccccc1F)N1CCN(c2cnn(-c3cccc(Cl)c3)c(=O)c2Cl)CC1,active: 20.6 µM,–
Cc1ccc(S(=O)(=O)N2CCN(C(=O)CN3C(=O)NC(C)(CCC(C)C)C3=O)CC2)c(C)c1 (centres undefined),"inconclusive [inhibitor, partial curve]",–
Cc1ccc(-c2nnc(SCC(=O)N(C)C)nc2-c2ccc(C)cc2)cc1,active: 23.1 µM,–
O=C(Nc1c2c(nn1-c1ccc(F)cc1)CS(=O)(=O)C2)c1ccc(S(=O)(=O)N2CCOCC2)cc1,inactive,–
CN1CCN(C(=O)CCN2C(=O)/C(=C\c3ccccc3F)SC2=S)CC1,"inconclusive [inhibitor, partial curve]",–
CC1(C)Cc2cccc(OC(=O)NC3CCCCC3)c2O1,"inconclusive [inhibitor, partial curve]",–
COc1cccc(CNC(=O)Cn2ccc3cc(S(=O)(=O)N4CCCCCC4)ccc32)c1,"inconclusive [inhibitor, partial curve]",–
CCN(CC(=O)Nc1ccccc1C(=O)OC)S(=O)(=O)c1ccc(OC)cc1,"inconclusive [inhibitor, single point]",–
CC[C@@]1(C(=O)OC)N[C@H](CN(C)C(=O)Nc2ccccc2)[C@@H]2C(=O)N(C)C(=O)[C@@H]21,inactive,–
COc1ccccc1NCC(=O)n1nc(C)cc1C,inactive,–
COc1ccc(-n2nc3c(N4CCCC(C(=O)NCCc5ccc(C)cc5)C4)nnc(C)c3c2C)cc1 (centres undefined),active: 3.66 µM,–
Cc1ccc(C)c(OCCn2cc(C(=O)O)c3ccccc32)c1,inactive,–
O=C(Nc1ccc(Cl)cn1)c1ccc2nccnc2c1,"inconclusive [inhibitor, single point]",–
Cc1ccc(Cl)cc1N1CCN(C(=O)Cc2ccc(-n3c(=O)[nH]c4ccsc4c3=O)cc2)CC1,"inconclusive [inhibitor, single point]",–
NC(=S)NNc1cccc(Cl)c1,active: 14.6 µM,–

# Source: PubChem BioAssay AID686978 (National Center for Advancing Translational Sciences (NCATS), 2013)
